Experimental data reported in the supplement of paper PMC3334620.
Over roughly 33,000 sequences, “E-score (-0.5 to 0.5)” has its median near -0.017; the highest 2% begin near 0.3. The list shows a part of the results.

What follows are sequences tested against T1, Sut1 (UniProt P53032) (assay: PBM E-score (8-mer binding enrichment) (E-score (-0.5 to 0.5)); higher = stronger / more preferred TF binding; most listed sequences are background and not binding sites). Details: protein concentration: 200 nM; construct: GST-full length.
T1 sequence: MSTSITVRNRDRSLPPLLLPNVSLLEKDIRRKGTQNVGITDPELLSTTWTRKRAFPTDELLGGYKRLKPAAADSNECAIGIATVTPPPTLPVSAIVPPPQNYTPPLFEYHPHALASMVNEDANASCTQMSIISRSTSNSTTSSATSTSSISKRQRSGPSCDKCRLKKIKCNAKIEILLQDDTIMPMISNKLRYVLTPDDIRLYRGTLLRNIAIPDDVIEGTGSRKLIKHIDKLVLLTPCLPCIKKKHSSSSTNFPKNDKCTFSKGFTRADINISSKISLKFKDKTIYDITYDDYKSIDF
Procedure, shortened: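 For each ungapped eight-base word taken together with its reverse complement, the Universal PBM Analysis Suite assigned an E-score. Binding data came from GST-tagged yeast transcription factors, applied at about 100-200 nM, on universal all-10-mer Agilent arrays made double-stranded by primer extension. Fluorescent anti-GST marked bound protein, and scans were normalised with masliner.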

Sequence	PBM E-score
ATTAGGGG	-0.154
CGCCCCCA	-0.206
AACGCGGA	0.297
GGAGCCAA	-0.0454
GCCGGGGA	-0.143
ATAGCATA	0.0255
GCTACTAA	0.0736
ACCCGAAC	0.157
ATGGTACA	0.0306
AGGGGTTG	-0.166
GAAGAAGC	-0.0412
TGCGACAA	-0.102
CCGCCAGG	-0.315
CAGTGAGC	-0.117
TCCTCCCA	-0.247
AGGAAGGG	-0.157
AAAAAAAA	0.228
ACTGTAGC	-0.0755
AATCTTGG	0.0389
CGGCCGTA	-0.241
CTCTAGCA	-0.127
TAGACCCA	-0.211
AGGTACAC	-0.111
CACCCACA	-0.135

Sequence	PBM E-score
CCACGGGA	-0.156
GATTATCC	0.0469
CTCTCTAC	-0.0806
ATGGGTGA	-0.18
CCGACACG	-0.155
GTTCCACA	-0.0384
CGGTCGCA	-0.218
GGGCACCA	-0.157
CACGCCGA	-0.0856
CAAATGGG	-0.0928
CCAACCAG	-0.187
ATACGTAA	0.108
CGCAGGCA	-0.115
CCGCTGCG	-0.19
ACTGGTTC	0.179
ACTATTAT	0.222
GGAGCCAC	0.00473
ATCGAGCA	-0.0254
ATGGTCTC	-0.0673
AATAGATA	0.212
AATGTTGT	-0.0339
CTCGCGAG	0.0751
GTCACGTA	-0.16
CGTCACGA	-0.124

Sequence	PBM E-score
CTCTCCCC	-0.259
AGGCACTC	-0.126
GCTTTTCA	0.0469
CGGCTACA	-0.254
AGTAAGTA	0.225
ACCCTGTC	-0.246
AATCCGGG	0.103
CGGTCCCA	-0.13
CCGGCGAA	0.215
AGAACGCC	-0.0475
AATGTAAT	0.284
CCGCGTCC	0.124
AATGCAAA	0.212
GATTAACC	-0.1
GGCATGAA	0.064
ACACCCTG	-0.242
CCCCCGTC	-0.319
AATTCTCG	0.105
GGACGTCA	-0.0196
GGCATCTA	-0.057
ACAAACTA	0.154
ATTCTTAG	-0.0704
CTGTAAAA	0.121
GCTACTCC	0.3

Sequence	PBM E-score
ACAGTATA	0.102
GATCTGGA	-0.0652
AGCTCGAT	-0.0343
GAAGCTAA	0.0283
GCTATCAA	0.119
GTCTACCA	-0.0961
TGTCTCAA	-0.115
AACAAATC	0.152
CGCGCGTA	-0.046
AGGTTATG	0.0915
AAAAAATA	0.242
CGGCGAAG	0.01
GTATTGAA	0.118
TATACCAA	0.112
AGTTCTCA	0.17
TCTGGCAA	-0.0931
CCGCCATA	-0.043
AAGCCACA	-0.00109
CCCACTCC	0.101
CATCTCCG	0.478
GCACACCA	-0.15
ATTCTTCC	0.226
